The list shows a part of the results.
molecular target: T1, OsWOX13 (Oryza sativa, UniProt Q5QMM3 1-267); assay: protein-binding microarray (RPBM); PBS, 2% BSA, 51.3 ng/ul salmon testes DNA, 50 uM zinc acetate, 200 nM TF, 25 C, 1 h; high values mean tight binding; details: protein: recombinant; tags: N-terminal polyhistidine and DsRed monomer fusion (pET32a); label: CyDye5-dUTP incorporated in the synthesized complementary strand; 3' TTTTT single-stranded linker to array surface; dsDNA, one strand shown
T1 sequence: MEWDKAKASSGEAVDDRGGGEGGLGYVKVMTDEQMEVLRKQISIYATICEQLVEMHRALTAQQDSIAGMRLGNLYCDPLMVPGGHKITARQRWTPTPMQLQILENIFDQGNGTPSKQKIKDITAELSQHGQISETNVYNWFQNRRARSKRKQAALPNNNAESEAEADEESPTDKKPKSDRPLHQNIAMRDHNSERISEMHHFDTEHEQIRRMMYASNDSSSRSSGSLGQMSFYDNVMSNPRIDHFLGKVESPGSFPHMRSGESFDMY
Outline: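 Transcription factors were made in E. coli BL21-CodonPlus as N-terminal fusions to a polyhistidine tag and DsRed, then purified on Ni–NTA. After primer extension with Cy5-dUTP and blocking with 2% BSA, a custom Agilent array was exposed for 1 h at 25 °C to 200 nM protein in PBS, 2% BSA, salmon testes DNA and 50 µM zinc acetate. Washed arrays were scanned on an Axon 4000B, and the binding signal is per-feature fluorescence intensity in arbitrary units.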

Sequence | binding signal
GAAAGATTATGTAACAAGATTGTACTGTCATGATGACATGCGGAGTCACCTAGTGCAG | 10200 fluorescence intensity (a.u.)
TGAAAACCATTTAAAATTTCAATCAAAATCTGTTTTCGCTCGGAGTCACCTAGTGCAG | 11300 fluorescence intensity (a.u.)
ATAGAGTAAATGACGGAATTAGATGATCACAACTTGCTGTCGGAGTCACCTAGTGCAG | 11200 fluorescence intensity (a.u.)
AATAAATCTGATTGATGTTTTCCAGAATGCATTTAGCAATCGGAGTCACCTAGTGCAG | 25200 fluorescence intensity (a.u.)
ATCTCCAAATACCAATCTAATTTGTTGTCCAGAATTTAATCGGAGTCACCTAGTGCAG | 6980 fluorescence intensity (a.u.)
AATAATAGACAGTGACTCTGTTTGGCGTACGCACAGACGACGGAGTCACCTAGTGCAG | 25700 fluorescence intensity (a.u.)
TAATAATTTAATGAAGAAGTGATCATAGTTAATGGCCTACCGGAGTCACCTAGTGCAG | 16100 fluorescence intensity (a.u.)
CCATCAATTGGGTCAATTTCTTGTTTATTCGTGCTAATAGCGGAGTCACCTAGTGCAG | 5520 fluorescence intensity (a.u.)
GATAGATTAATATATGATATATCTTTTCACAAACATACAACGGAGTCACCTAGTGCAG | 10500 fluorescence intensity (a.u.)
CTCTCCATCAGTGCCCTGCTTAATTGGTAGCTCAGGCAAACGGAGTCACCTAGTGCAG | 18700 fluorescence intensity (a.u.)
ATGATTAAATAGGAGTGTTAAATGTCAGAAATACTTGTCACGGAGTCACCTAGTGCAG | 24400 fluorescence intensity (a.u.)
CTACGTTTAATATTTATAATTAGTGTATAAATATTCGATGCGGAGTCACCTAGTGCAG | 6900 fluorescence intensity (a.u.)
CCCCTTTGTTGTGATTGAATCTGTGATGAATCGGTTGCCCCGGAGTCACCTAGTGCAG | 30100 fluorescence intensity (a.u.)
TCTAATGATAAAATAAATTACAGATTCCGCCTGTAAACTGCGGAGTCACCTAGTGCAG | 24400 fluorescence intensity (a.u.)
AACCCAACCCCAAGATTGATTGATCATCACTAGTAACCACCGGAGTCACCTAGTGCAG | 37000 fluorescence intensity (a.u.)
TCTTTGATTGGTGGCGGTGTTGAATTGAATTGAATTGATCCGGAGTCACCTAGTGCAG | 46300 fluorescence intensity (a.u.)
GAATTTTCCAATAGATTGAATCTCTTGCTAAATTTCCTTCCGGAGTCACCTAGTGCAG | 9120 fluorescence intensity (a.u.)
AAATAATTTTACAGATAAGATATCCACATAATGATTATAGCGGAGTCACCTAGTGCAG | 8230 fluorescence intensity (a.u.)
AAACGTAGATTACTGACAAAATTTATTCCATAATCCCTGGCGGAGTCACCTAGTGCAG | 7270 fluorescence intensity (a.u.)
TTAATTGAGACCGATGAAGAGGCCATATGGACTGCGGGCCCGGAGTCACCTAGTGCAG | 16600 fluorescence intensity (a.u.)
GTTTTCCTAATTACGACCTCCCAGTGTTGTAATCTTATAACGGAGTCACCTAGTGCAG | 4680 fluorescence intensity (a.u.)
TCTATTATTTCTTAATTGTATTTCTATATAAACTATATACCGGAGTCACCTAGTGCAG | 3390 fluorescence intensity (a.u.)
TGGACTAATGACTGATATACAGTTCAGCTAATCTCCATTACGGAGTCACCTAGTGCAG | 7970 fluorescence intensity (a.u.)
AACTTAATTAATGAGTAGCTTATAAAATCCTCAACTCGGCCGGAGTCACCTAGTGCAG | 40400 fluorescence intensity (a.u.)
GTTAATGATGTTTTAGTTTACCTCCAAGGGAACTGTGGAACGGAGTCACCTAGTGCAG | 5680 fluorescence intensity (a.u.)
GCAATCAACAGCAGACTGACTGACTGCTCATTCTCACTCGCGGAGTCACCTAGTGCAG | 18500 fluorescence intensity (a.u.)
AAGGAAATTAACAAGTTAGAAATCGATGAAAATTCTACAACGGAGTCACCTAGTGCAG | 4390 fluorescence intensity (a.u.)

Sequence | binding signal
ATCTTGACAAATTTGCTTGTAGTTTGTAGAATTTGCTGTTCGGAGTCACCTAGTGCAG | 22300 fluorescence intensity (a.u.)
CGTCCGCCACTGATTGACTATAAAGCGAACCAACCTGATTCGGAGTCACCTAGTGCAG | 43200 fluorescence intensity (a.u.)
GGTCCCTAAACTCGCAAATTGACCGTTCAGGTCCTCAAACCGGAGTCACCTAGTGCAG | 3500 fluorescence intensity (a.u.)
ATAATATAATTATGTAAGATCTTGTTTTGAATTGCAACGACGGAGTCACCTAGTGCAG | 21100 fluorescence intensity (a.u.)
ATGATAATGTCAAATTTACGATTTAATTTGGATCTGGATGCGGAGTCACCTAGTGCAG | 23700 fluorescence intensity (a.u.)
AGCCATAATTACAAACACCTGTGATATACTCTCTTATTTCCGGAGTCACCTAGTGCAG | 8480 fluorescence intensity (a.u.)
TGTTTTAGTTAATTAATATAGTAGTCCATTGTAAATCACTCGGAGTCACCTAGTGCAG | 7100 fluorescence intensity (a.u.)
CCTCCATCCCCACAAATTACAATCAACAGGGAATATTCTGCGGAGTCACCTAGTGCAG | 6720 fluorescence intensity (a.u.)
TTCAATATTAATTTATGTTATTAATTTTAGAAATATATGTCGGAGTCACCTAGTGCAG | 10800 fluorescence intensity (a.u.)
CCGTCAATCTCGCCGTCACCTGCTTCTTCTCCTCTATAAACGGAGTCACCTAGTGCAG | 6840 fluorescence intensity (a.u.)
ATATATATATATATATATATATATAAAGCAGAAAGAAATACGGAGTCACCTAGTGCAG | 22400 fluorescence intensity (a.u.)
TCTGACTGCTTCGTCGCTTTTCTATCATTGCTATTTTGGTCGGAGTCACCTAGTGCAG | 11300 fluorescence intensity (a.u.)
TAGGTTTGTAATTTTAGGATAATTTACTCTGAATGTGTTGCGGAGTCACCTAGTGCAG | 8410 fluorescence intensity (a.u.)
GGGTTGATATATTGATGAATGCTCATATTCCCGATTGATACGGAGTCACCTAGTGCAG | 9530 fluorescence intensity (a.u.)
ATGTCAATCTAATGTCACTAACCCACCCGCCATTGATCTCCGGAGTCACCTAGTGCAG | 12400 fluorescence intensity (a.u.)
AATCACTATAATTTAACATAGGAATTTCAAATACAGTGTACGGAGTCACCTAGTGCAG | 4520 fluorescence intensity (a.u.)
GAGTTATTTATAATTTATATTCTCAAGATTTGACTGAGTTCGGAGTCACCTAGTGCAG | 5000 fluorescence intensity (a.u.)
GAACAAAACTGCCATTATCTCGTCAGTCATCGAGTCCACTCGGAGTCACCTAGTGCAG | 6230 fluorescence intensity (a.u.)
ATAGTGATAGGTCTGTCAATGCAGTGAGGTCCTGAAAACCCGGAGTCACCTAGTGCAG | 8210 fluorescence intensity (a.u.)
TTAATATTTATAATTAGTATCCAATCATCCGATGTGATAGCGGAGTCACCTAGTGCAG | 29800 fluorescence intensity (a.u.)
TGGATGATTTTGAAGGCAATGTGGACAAGGACTGGGGTGCCGGAGTCACCTAGTGCAG | 4880 fluorescence intensity (a.u.)
ATTAAATTATTTGGAGCTATAGACAAATAGCCTAATCAAACGGAGTCACCTAGTGCAG | 9990 fluorescence intensity (a.u.)
CTATATAGATTAGATTTGGCTCGAAAGGAACAGGGACCCTCGGAGTCACCTAGTGCAG | 17200 fluorescence intensity (a.u.)
GTGTCAATCTGTCTATATAGTATATAGTCTATACAAAACACGGAGTCACCTAGTGCAG | 6550 fluorescence intensity (a.u.)
AGCTTGATTAGCCCAAAGCTTGATGCCGACCAAGCTTTGTCGGAGTCACCTAGTGCAG | 34800 fluorescence intensity (a.u.)
AAGATAAATCAGTTGATTTCTCAAATTCAATTGAGTCCCACGGAGTCACCTAGTGCAG | 17600 fluorescence intensity (a.u.)
CACAGAATCCTTAATTAATTATATACATATATTGATCATGCGGAGTCACCTAGTGCAG | 16200 fluorescence intensity (a.u.)

From PMC7819943, “Rice protein-binding microarrays: a tool to detect cis-acting elements near promoter regions in rice”
